# Assay results published in PubChem BioAssay AID1460 (National Center for Advancing Translational Sciences (NCATS), 2008).
# The whole screen tested about 270,000 compounds, of which about 5,800 (2.1%) were called active. Inconclusive means that the source gave no clear call. Such entries were picked first, then a sample of the others. The call rests on the fitted dose curve; in most records, active means well fitted inhibition curve with a large enough effect; inconclusive means small, poorly fitted or top-dose-only effect; inactive means flat fitted curve, though single readings scatter. Where the call is inconclusive, the potency comes from a doubtful curve fit.
# Molecular target: Microtubule-associated protein tau (Homo sapiens) (UniProt P10636)
# UniProt P10636, sequence (P10636 whole entry, looked up): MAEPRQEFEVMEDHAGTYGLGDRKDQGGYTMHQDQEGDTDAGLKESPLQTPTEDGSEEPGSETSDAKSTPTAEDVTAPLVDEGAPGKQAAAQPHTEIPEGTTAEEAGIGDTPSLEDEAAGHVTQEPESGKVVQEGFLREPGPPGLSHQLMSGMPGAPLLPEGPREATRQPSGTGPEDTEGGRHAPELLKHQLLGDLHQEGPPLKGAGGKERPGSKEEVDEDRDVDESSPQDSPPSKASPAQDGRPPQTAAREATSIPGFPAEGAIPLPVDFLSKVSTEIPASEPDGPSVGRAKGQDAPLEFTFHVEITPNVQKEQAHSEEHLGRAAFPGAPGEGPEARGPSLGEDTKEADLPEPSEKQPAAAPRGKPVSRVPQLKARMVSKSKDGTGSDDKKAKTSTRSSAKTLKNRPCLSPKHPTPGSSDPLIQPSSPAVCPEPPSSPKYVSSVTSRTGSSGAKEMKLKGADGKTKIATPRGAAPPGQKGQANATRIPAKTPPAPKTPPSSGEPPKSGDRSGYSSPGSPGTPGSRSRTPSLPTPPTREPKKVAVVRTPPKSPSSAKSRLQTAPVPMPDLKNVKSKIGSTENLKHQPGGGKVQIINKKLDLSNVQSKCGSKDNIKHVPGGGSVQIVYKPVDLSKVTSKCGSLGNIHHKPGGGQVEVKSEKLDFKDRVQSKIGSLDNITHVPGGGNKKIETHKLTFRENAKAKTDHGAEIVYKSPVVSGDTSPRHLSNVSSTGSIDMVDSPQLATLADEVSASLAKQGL
# Test: qHTS for Inhibitors of Tau Fibril Formation, Thioflavin T Binding; further: nearly all actives have a fitted effect of over 55% in size
# Conditions: recombinant tau K18 P301L (four-repeat tau fragment), heparin-induced fibrillization, ThT fluorescence; series mostly up to 57.4 µM
# Procedure, shortened: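 Recombinant human tau K18 fragment […] carrying P301L, 15 uM unlabeled plus 0.24 uM Alexa 594-labeled, was fibrillized with 20 uM heparin in 100 mM sodium acetate pH 7 for 6 hr at 37 C; 30 uM ThT fluorescence read after 1 hr.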
# On the % scale 0 is the no-effect control and ±100 the full control effect; potency means the concentration at half of the fitted maximal effect; tags describe the fitted curve by direction and shape.
Compound,Potency,"activity, negative = inhibition"
O=C(NNC(=S)NC(=O)c1ccccc1[N+](=O)[O-])c1ccccc1Cl,"inconclusive: 3.55 µM [inhibitor, single point]",
O=C(NCCc1nc2ccccc2[nH]1)c1ccc(Cl)c([N+](=O)[O-])c1,"inconclusive: 12.6 µM [inhibitor, partial curve]",
Cc1c(/C=N/Nc2ccc(F)cc2)c(O)n(C)c(=O)c1C#N,active: 14.1 µM,
O=[N+]([O-])c1cc2oc3c(c2c(C=NCc2ccccc2)c1O)CCCC3,active: 5.01 µM,
CC(C(=O)N1CCCCC1)N1C(=O)c2ccccc2C1=O (stereo not given),inactive,
O=C(NNC(=S)NCc1ccco1)c1cccs1,inactive,
Cc1noc(/C=C/c2ccco2)c1S(=O)(=O)N1CCC(C(=O)NCc2ccco2)CC1,"inconclusive: 28.2 µM [inhibitor, partial curve]",
O=C(CNC(=O)c1cccc(F)c1)N/N=C/c1ccc(O)c([N+](=O)[O-])c1,"inconclusive: 10 µM [inhibitor, partial curve]",
CCOC(=O)CSc1nnc2n(-c3ccccc3)c(=O)c3c4c(sc3n12)CC(C(C)(C)C)CC4 (stereo not given),"inconclusive: 31.6 µM [inhibitor, single point]",
CC(=O)Nc1sc(N/N=C/c2ccccc2)nc1-c1ccc(C)cc1,"inconclusive: 31.6 µM [inhibitor, partial curve]",
O=C(O)CSc1c2c(nc3cc(C(=O)N4CCOCC4)ccc13)CCCC2,inactive,
CC[C@H](C)[C@@H](NC(=O)O[C@@H]1C(=O)c2ccc(OC)cc2O[C@H]1c1ccc2c(c1)OCO2)C(=O)OC,inactive,
CCOC(=O)c1nnn(-c2nonc2-n2cccc2)c1CCl,"inconclusive: 17.8 µM [inhibitor, partial curve, poor fit]",
CCOc1cc(C(=O)OCC(=O)c2c(C)[nH]c3ccccc23)ccc1OCC(=O)N1CCOCC1,"inconclusive: 39.8 µM [inhibitor, single point]",
CSc1nc(Cl)cc(Nc2ccc(O)cc2)n1,inactive,
CCCCCn1c(C(Cc2ccccc2)NC(=O)COC)nc2ccccc21 (stereo not given),inactive,
CCCCCSc1nc2sc3c(c2c(=O)n1-c1ccc(OC)cc1)CCN(C(C)=O)C3,"inconclusive: 39.8 µM [inhibitor, single point]",
CCCC(=O)Nc1ccc2c(c1)nc1n2CCN(C2CCCCC2)C1,"inconclusive: 12.6 µM [inhibitor, partial curve]",
COc1ccccc1NC(=O)CC(c1cc(OC)c(OC)c(OC)c1)N1Cc2ccccc2C1=O (stereo not given),inactive,
Cc1ccc(N/N=C(\Cc2nc3ccccc3[nH]2)c2ccccc2)cc1,"inconclusive: 15.8 µM [inhibitor, partial curve]",
COc1ccc(S(=O)(=O)NCc2cccn2Cc2cccc(C)c2)cc1,inactive,
Cc1ccc(Nc2c(-c3ccsc3)nc3c(C)cccn23)cc1,"inconclusive: 22.4 µM [inhibitor, single point]",
O=C(Oc1cccc(C(=S)N2CCOCC2)c1)c1cc([N+](=O)[O-])cc([N+](=O)[O-])c1,"inconclusive: 15.8 µM [inhibitor, partial curve]",

Compound,Potency,"activity, negative = inhibition"
CN(C1CCCCC1)S(=O)(=O)c1ccc(NC(=O)CCC(=O)O)cc1,inactive,
O=C(COC(=O)c1ccc([N+](=O)[O-])s1)NC(=O)NCc1ccccc1,"inconclusive: 15.8 µM [inhibitor, partial curve]",
CC(/C=N/NC(=O)c1ccncc1)=C\c1ccco1,"inconclusive: 15.8 µM [inhibitor, partial curve]",
CN1CCc2cc3c(c4c2[C@H]1[C@H](O)c1ccccc1-4)OCO3,"inconclusive: 15.8 µM [inhibitor, partial curve]",
CC(C)c1ccc(/C=N/NC(=O)c2nnn(-c3nonc3N)c2CSC2=NCCS2)cc1,inactive,
Cc1sc2ncnc(SCC#N)c2c1C,"inconclusive: 20 µM [inhibitor, partial curve, poor fit]",
CCCc1nc2ccccc2c(C(=O)OCC(=O)Nc2ccc(S(=O)(=O)N3CCOCC3)cc2)c1CC,inactive,
Cc1nn(-c2ccccc2)cc1C(=S)Nc1ccccc1,"inconclusive: 17.8 µM [inhibitor, partial curve]",
O=c1c(=O)n(O)c2ccccc2n1O,inactive,
[O-]C1=N/[N+](=C/c2ccc(Cl)c(Cl)c2)CC1,"inconclusive: 39.8 µM [inhibitor, single point]",
Nc1ccc(N2CCN(CCCCN3C(=O)C4CCCN4C3=O)CC2)cc1 (stereo not given),active: 14.1 µM,
N#C/C(=C\c1cc([N+](=O)[O-])ccc1Cl)C(N)=O,"inconclusive: 22.4 µM [inhibitor, single point]",
CCOC(=O)c1c(NC(=O)c2ccnn2C)sc(C)c1C,inactive,
Cc1ccc(-n2nc3c(=O)n(CC(=O)NCC(C)c4ccccc4)nc(C)c3c2C)cc1 (stereo not given),inactive,
CC(C)(C)NC(=O)C(c1ccncc1)N(Cc1cccs1)C(=O)Cn1nnc(-c2cccs2)n1 (stereo not given),"inconclusive: 28.2 µM [inhibitor, partial curve, poor fit]",
CC(C)(C)NC(=O)CSc1nncn1NCc1c(Cl)cccc1Cl,inactive,
C/C(CC(=O)Nc1ccc(OCc2ccccc2)cc1)=N\NC(=O)C(=O)Nc1ccccc1C,"inconclusive: 3.16 µM [inhibitor, partial curve]",
COc1cc([N+](=O)[O-])cc(/C=N/NC(=O)Cn2nc(C)cc2C)c1O,"inconclusive: 39.8 µM [inhibitor, single point]",
O=C(/C=C\c1cccs1)c1c(O)ccc2ccc(=O)oc12,"inconclusive: 20 µM [inhibitor, partial curve]",
CC(C)CO/N=C1/C[C@@H](O)[C@@H](O)[C@@H]2[C@@H]3C(=O)N([C@@H](C)c4ccccc4)C(=O)[C@H]3CC[C@@H]12,,inactive: -2.38% [at 11.5 µM]
O=c1cc(/N=C/c2coc3c(ccc4ccccc43)c2=O)[nH]c(=S)[nH]1,"inconclusive: 3.98 µM [inhibitor, full curve]",
Cc1ccc(-c2nn3c(C)nnc3s2)cc1NC(=O)c1ccc(-c2cccc(Cl)c2)o1,"inconclusive: 14.1 µM [inhibitor, partial curve]",
